Test results taken from PubChem BioAssay AID624170 (National Center for Advancing Translational Sciences (NCATS), 2012).
Hit rate of the full screen: of about 410,000 compounds, about 850 (0.21%) were called active. This list was built around the results that the source calls inconclusive (neither active nor inactive); the mix of calls is not that of the screen. Calls come from the whole dose curve; as a rule, active = well fitted inhibition curve with a large enough effect; inconclusive = small, poorly fitted or top-dose-only effect, or another doubt; inactive = no such curve, though single readings can be large or run the other way. No potency is given beside an inconclusive call; the fits are too rough.

Molecular target: Glutaminase kidney isoform, mitochondrial (Homo sapiens) (UniProt O94925)
Experiment: qHTS for Inhibitors of Glutaminase (GLS)
Details: GLS enzymatic activity, qHTS titration; series mostly up to 45.5 µM; activity change, negative = inhibition: at the top concentration
Outline: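 hKGA in 45 mM KH2PO4 pH 8.2, 0.02% Tween-20 with pin-transferred compounds; 1 mM L-glutamine (stock) plus glutamate oxidase/HRP/Amplex Red coupling added. Fluorescence read initially and after 30 min at RT.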
% is set by controls: 0 for no effect and ±100 for the full control effect; potency is the fitted concentration of half-maximal effect; tags give direction and shape of the fitted curve.

Sequence of UniProt O94925 (O94925 whole entry, looked up, canonical isoform): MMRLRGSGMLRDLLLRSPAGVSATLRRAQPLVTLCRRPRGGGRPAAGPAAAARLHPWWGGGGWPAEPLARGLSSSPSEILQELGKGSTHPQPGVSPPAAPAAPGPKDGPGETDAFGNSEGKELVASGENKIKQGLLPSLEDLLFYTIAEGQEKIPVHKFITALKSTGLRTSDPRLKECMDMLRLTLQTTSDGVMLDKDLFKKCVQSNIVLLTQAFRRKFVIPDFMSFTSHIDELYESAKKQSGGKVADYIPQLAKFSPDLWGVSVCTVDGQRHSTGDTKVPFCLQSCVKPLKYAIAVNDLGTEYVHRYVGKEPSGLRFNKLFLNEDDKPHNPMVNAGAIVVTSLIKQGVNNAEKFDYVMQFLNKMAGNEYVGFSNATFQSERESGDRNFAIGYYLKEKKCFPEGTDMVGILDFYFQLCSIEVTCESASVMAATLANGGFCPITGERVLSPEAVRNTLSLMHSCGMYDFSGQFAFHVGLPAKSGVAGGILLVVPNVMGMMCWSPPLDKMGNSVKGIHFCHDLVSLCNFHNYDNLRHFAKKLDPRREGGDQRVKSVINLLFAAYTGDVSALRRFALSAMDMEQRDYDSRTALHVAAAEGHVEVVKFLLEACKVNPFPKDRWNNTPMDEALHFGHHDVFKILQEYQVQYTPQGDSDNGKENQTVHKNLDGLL

Structure (SMILES)	Potency	activity change, negative = inhibition
CN(c1cccc(NC(=O)c2ccc(N(C)S(=O)(=O)c3ccccc3)cc2)c1)S(C)(=O)=O	inconclusive [inhibitor, single point]	–
Cc1ccccc1Nc1c(-c2ccccn2)nc2c(C)cccn12	inconclusive [inhibitor, single point]	–
O=C1/C(=C/C=C/c2ccco2)SC(=S)N1NS(=O)(=O)c1ccccc1	active: 15.8 µM	–
CCc1ccc(N=C2NC(=O)/C(=C/c3cc(Br)c(OCC(=O)O)c(OC)c3)S2)cc1	inconclusive [inhibitor, single point]	–
Brc1ccc(Nc2nc(-c3cccnc3)cs2)cc1	inconclusive [inhibitor, single point]	–
COCC(=O)Nc1cc(C)cn(Cc2c(F)cccc2Cl)c1=O	inconclusive [inhibitor, single point]	–
COc1ccccc1Cc1nc2ccccc2nc1SCC(=O)N(C)c1ccc(F)cc1	–	inactive: 4.05%
N=C1/C(=C\c2coc3ccccc3c2=O)C(=O)N=C2SC(c3ccncc3)=NN12	inconclusive [inhibitor, full curve]	–
O=c1cnn(Cc2ccc(F)cc2)c2ccccc12	inconclusive [inhibitor, single point]	–
CC(C)(C)C(=O)C(Cl)C(=O)Nc1ccccc1 (configuration not stated)	inconclusive [inhibitor, single point]	–
COCCCn1c(=O)c2ccccc2n(Cc2ccc(C)cc2)c1=O	–	inactive: -16.3%
CC(C)(C)c1cc(C(=O)NNc2cc(C(F)(F)F)ccc2Cl)n(Cc2ccccc2)n1	inconclusive [inhibitor, single point]	–
NC(=O)SCC(=O)Nc1ccc(Cl)cc1	–	inactive: 0.134%
CCCc1nc2sc3c(c2c(=O)[nH]1)CCCC3	inconclusive [inhibitor, single point]	–
CC(C)=NNc1nc(-c2ccc(N3C(=O)CCC3=O)cc2)cs1	inconclusive [inhibitor, partial curve, poor fit]	–
CN(C)S(=O)(=O)c1cccc(NC(=S)NNC(=O)c2cc3ccccc3cc2O)c1	inconclusive [inhibitor, single point]	–
S=c1[nH]nc(C2CCCCC2)n1/N=C/c1c(Cl)cccc1Cl	inconclusive [inhibitor, single point]	–
O=S(=O)(Nc1ccc(S(=O)(=O)N2CCCCCC2)cc1)c1cccs1	inconclusive [inhibitor, single point]	–
Cc1ccc(C)n1-c1c(C(=O)NN)cnn1-c1ccccc1	inconclusive [inhibitor, single point]	–
COc1ccc(NC(=O)C2CCN(C(=O)Cc3ccccc3)CC2)c(OC)c1	inconclusive [inhibitor, full curve, poor fit]	–
COc1ccc(NC(=O)C(c2ccccc2)N(C)C(=O)c2cnccn2)cc1 (configuration not stated)	inconclusive [inhibitor, full curve]	–

Structure (SMILES)	Potency	activity change, negative = inhibition
COc1ccc(N(CC(=O)NCc2ccc(Cl)cc2)S(=O)(=O)c2ccccc2[N+](=O)[O-])c(OC)c1	inconclusive [inhibitor, partial curve, poor fit]	–
COc1ccc(Br)cc1-c1noc(-c2ccccc2)n1	–	inactive: 0.367%
CCSS(=O)(=O)c1cccc2cccnc12	active: 10 µM	–
COc1ccccc1NC(=O)Nc1ccccc1Br	inconclusive [inhibitor, single point]	–
O=C1c2ccccc2C(=O)N1CCCc1nc2ccccc2c(=O)n1CCCn1ccnc1	inconclusive [inhibitor, single point]	–
CO/N=C(\C(=O)N[C@@H]1C(=O)N2C(C(=O)[O-])=C(C[n+]3cccc4c3CCC4)CS[C@H]12)c1csc(N)n1	inconclusive [inhibitor, single point]	–
COc1ccc2c(C)c(CCC(=O)NCc3ccc(Cl)cc3)c(=O)oc2c1C	–	inactive: 8.84%
O=C(N/N=C/c1ccc(F)cc1)c1cc(-c2ccco2)nc2ccccc12	active: 10 µM	–
Cc1ccccc1NC(=S)NNC(=O)c1ccncc1	inconclusive [inhibitor, partial curve, poor fit]	–
Cc1ccc(-c2nn(-c3cccc(F)c3)cc2CN(Cc2nccn2C)C(C)C)o1	inconclusive [inhibitor, partial curve, poor fit]	–
COc1cccc(C(=O)NC(c2ccccc2)C2CCCC2)c1 (configuration not stated)	inconclusive [inhibitor, partial curve, poor fit]	–
COc1ccccc1OCC(=O)NCC1CCCN(C(=O)c2ccccc2SC)C1 (configuration not stated)	inconclusive [inhibitor, single point]	–
CC(=O)Nc1cc2c(cc1[N+](=O)[O-])-c1ccccc1C2O (configuration not stated)	inconclusive [inhibitor, single point]	–
CCCn1c(N)c(N(CCOC)C(=O)Cc2ccc(S(=O)(=O)N3CCOCC3)s2)c(=O)[nH]c1=O	–	inactive: 6.94%
CC(C)=CCc1c(O)ccc2c1OC(c1ccc(O)c(O)c1)CC2=O (configuration not stated)	inconclusive [inhibitor, single point]	–
CCOC(=O)c1c(C)[nH]c(=S)c(C#N)c1-c1ccc(OC)cc1	inconclusive [inhibitor, partial curve, poor fit]	–
C/C(=N/NC(=O)c1sc(NS(=O)(=O)c2ccccc2)nc1C)c1sc(N)nc1C	inconclusive [inhibitor, single point]	–
O=C(c1cccnc1)N1CCN(Cc2cccc(F)c2)CC1	–	inactive: 11%
O=C(Oc1ccc2c(=O)c(Oc3ccc4ccccc4c3)coc2c1)c1cncc(Br)c1	inconclusive [inhibitor, single point]	–
Cc1c(C(=O)N/N=C/c2cccnc2)nnn1-c1nonc1N	inconclusive [inhibitor, single point]	–
CSc1nc(NCc2ccco2)c2sc3nc(C(C)C)c4c(c3c2n1)CC(C)(C)OC4	–	inactive: -0.817%
